The list shows a part of the results.
B1: chr2:80288350:80289195:-|three_prime_utr|ENSG00000162951|control|control|control (ssRNA)
RNA: GGGAGUUCUACAGUCCGACGAUCAGAUUCAGUCCCCAGUCCUCCUUCUCUGAGCAGACCUCUCAUCCGCAGCAUAUAUCUGCUAGAUCUUCUAAGAGCUGAAAUGGAGACUUCUGGAAGAAGGUGGGAAAGAAAUCCAUCUCGCAACAGAGGAUUGAGCAUCA
B2: chr6:117694021:117694122:+|CDS|ENSG00000153989|msi1|total|mutant (ssRNA)
RNA: GGGAGUUCUACAGUCCGACGAUCGCUGUCUCCGGAAGAUGGAAAAGCAGAUAUUGUAAGAGCUGCUCAGGACUUUUGCCAGUCCGCCGCCCAGAAGCAAAAGAGACCCACAGAUUUGGAUGCCGAUACGUCCGCCAGUUUACUCAACAGAGGAUUGAGCAUCA
B3: chrX:130625084:130625185:-|3pUTR|ENSG00000165675|msi1|total|mutant (ssRNA)
RNA: GGGAGUUCUACAGUCCGACGAUCAGUUCCUUUGAAUUUGUCAGUUCAUUCCUGGAAAAUCUUUUGAGUUAAAAUAAGGAUCCCCGGACAGCACCUCGAACUACAGGCCCUAAAGAGAAAUUGCCUCAAACCACAAGUGCUGUACAACAGAGGAUUGAGCAUCA
B4: chr7:101137743:101137929:+|3pUTR|ENSG00000106366|msi1|FALSE|unique (ssRNA)
RNA: GGGAGUUCUACAGUCCGACGAUCCCACUGAGGCCCUUUGCAGGAUGGAACUACGGGGCUUACAGGAGCUUUUGUGUGCCUGGUAGAAACUAUUUCUGUUCCAGUCACAUUGCCAUCACUCUUGUACUGCCUGCCACCGCGGAGCAACAGAGGAUUGAGCAUCA
B5: chr8:80500255:80500365:+|CDS|ENSG00000205189|unk|total|mutant (ssRNA)
RNA: GGGAGUUCUACAGUCCGACGAUCGAAAAACCAAACUACAAAAAGAUUUAUUUAUAAUAUUCCACCUAAUAAUGAAACGAAUUCCGAAGAUUGCUCAGUAAUGCAGCCACCUGUUGCCUAUCCAGAAGAAAAUACACUACUCAUCAACAGAGGAUUGAGCAUCA
B6: chrX:40073105:40073212:-|CDS|ENSG00000183337|unk|FALSE|unique (ssRNA)
RNA: GGGAGUUCUACAGUCCGACGAUCCUACCAAGAUGCCCUGGGGUUGGGCAUGGUGCAUCCCAUGUUGAUACCACACACGCCCAUAGAGAUUACUAAAGAGGAGAAACCAGAGAGGAGAUCCCGGUCCCAUGAGAGAGCCCGUUACAACAGAGGAUUGAGCAUCA
B7: chr18:9257137:9257239:+|CDS|ENSG00000101745|unk|FALSE|bound_elsewhere (ssRNA)
RNA: GGGAGUUCUACAGUCCGACGAUCUCUUAGGUCAUCUUCUGUAGAAGAUGUUAAACUAAUUAUAAGCGAGGGGAGACCUACCAUAGAAGUUCGAAGAUGUAGCAUGCCUUCUGUCAUUUGUGAACAUACCAAACAAUUCCAAACCAACAGAGGAUUGAGCAUCA
B8: chr10:99876058:99876159:-|3pUTR|ENSG00000107554|msi1|total|mutant (ssRNA)
RNA: GGGAGUUCUACAGUCCGACGAUCUUGAGCCUAAUGGAAGACUGGAUGUCUUUCUUCUUCAUCCAAGCACCCUAAUGACUGUUCCGUUACAUCCACCGAUGCAGACAACAUAACACCUGUGACUUACUUGAAUUGGGAUAAGCCCAACAGAGGAUUGAGCAUCA
B9: chr4:127885990:127886091:+|CDS|ENSG00000142731|msi1|total|mutant (ssRNA)
RNA: GGGAGUUCUACAGUCCGACGAUCAUUACUUAUCGGGAGACCACCCUUCGACACUGACACAGUCAAGAACACAUUAAAUAAAGCCGUAUUGGCAGAUUAUGAAAUGCCAUCUUUUUUGUCAACCGAGGCCAAGGACCUUAUUCACAACAGAGGAUUGAGCAUCA
B10: ENSG00000124766:be:win_3651|3pUTR|ENSG00000124766|bound_else_gene|NA|bound_elsewhere_windowed (ssRNA)
RNA: GGGAGUUCUACAGUCCGACGAUCUCGCUAAAUAUAAUUGUUUUAGUCUUAUGGCAUGAUGAUAGCAUAUGUGUUCAGGUUUAUAGCUGUUGUGUUUAAAAAUUGAAAAAAGUGGAAAACAUCUUUGUACAUUUAAGUCUGUAUCAACAGAGGAUUGAGCAUCA
B11: chr15:58589816:58589917:-|3pUTR|ENSG00000137845|unk|total|mutant (ssRNA)
RNA: GGGAGUUCUACAGUCCGACGAUCAUUCAUUUGCUGAAGAGCUGGCUUGUACUUUGGCAGGUGUCAUACUUGGUUAUUCUCCUCCGGAUAUUGGCCCAACAAUCUGGGAGUUGUGAAAGGCGCUUCGCUUUUCAGACCUGGGCGCAACAGAGGAUUGAGCAUCA
B12: chr12:122508217:122508450:-|three_prime_utr|ENSG00000111011|control|control|control (ssRNA)
RNA: GGGAGUUCUACAGUCCGACGAUCAGGUUCUGUUCUCAAUGUUGCUGCCCUGUUGGCAUCAGGAACACAAGUAACACCUCAGAUAGCCAUGGCAGCUCAGAUGGCAGCCCUGCAAGCUAAAGCUUUGGCAGAGACAGGAAUAGCCAACAGAGGAUUGAGCAUCA
B13: chr10:95606323:95606429:-|3pUTR|ENSG00000059573|unk|total|mutant (ssRNA)
RNA: GGGAGUUCUACAGUCCGACGAUCCCAUGGCUGCUUUGUGUCACCUCAGUGACUUACAGUCCCCCUUGGCAUUCCGUUGGUACCCGAGCCAGUCAUCCUUAACAAAUCUUUUCACAUUUUAUUUCUUUCACAUGCCGUCAUCUUCAACAGAGGAUUGAGCAUCA
B14: ENSG00000013306:stop:overlap|stop_codon|ENSG00000013306|stop_codon|NA|stop_codon (ssRNA)
RNA: GGGAGUUCUACAGUCCGACGAUCGUCCCCACCUCGGCCCAAACCCAGUCAGUCCCAGCUCCCAGCCCCAACCUCUGCCAGCCUAGGGAUAGGGGGGUGUUCUAGGUCCCCAGACCUGGGACAGCAGCCCUGUACUGGUUCAACCAACAGAGGAUUGAGCAUCA

What follows are binders tested against MSI1 full-length (mouse, UniProt Q61474 1-362) (assay: nsRBNS (natural sequence RNA bind-n-seq); RBNS binding buffer (assumed for nsRBNS): 25 mM Tris pH 7.5, 150 mM KCl, 3 mM MgCl2, 0.01% Triton X-100, 500 ug/ml BSA, 20 U/ml SUPERase-In, 4 C; UNK is unkempt and MSI1 is Musashi-1; names of the RNAs are library labels; protein concentration not given here; high values mean tight binding).
Chain of UniProt Q61474 (Q61474 whole entry): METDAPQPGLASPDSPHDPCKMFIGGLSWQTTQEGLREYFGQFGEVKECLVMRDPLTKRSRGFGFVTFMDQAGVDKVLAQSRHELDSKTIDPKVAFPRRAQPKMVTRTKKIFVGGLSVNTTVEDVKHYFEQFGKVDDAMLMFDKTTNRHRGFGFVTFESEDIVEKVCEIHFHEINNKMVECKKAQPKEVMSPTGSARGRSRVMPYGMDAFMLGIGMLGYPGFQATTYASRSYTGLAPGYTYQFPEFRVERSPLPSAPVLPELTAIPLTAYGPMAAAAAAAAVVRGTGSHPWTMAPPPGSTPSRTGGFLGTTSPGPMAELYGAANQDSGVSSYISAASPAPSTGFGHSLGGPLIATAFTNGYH

Binder | binding signal
B1 | 0.43 enrichment R
B2 | 0.409 enrichment R
B3 | 0.418 enrichment R
B4 | 0.302 enrichment R
B5 | 3.62 enrichment R
B6 | 0.783 enrichment R
B7 | 3.65 enrichment R
B8 | 0.387 enrichment R
B9 | 0.3 enrichment R
B10 | 2.43 enrichment R
B11 | 0.328 enrichment R
B12 | 0.393 enrichment R
B13 | 1.96 enrichment R
B14 | 0.534 enrichment R

Reference: paper PMC12136788
